According to the supplement of paper PMC11417369:
± gives the standard deviation of the averaged measurements. Some of the results follow.

Tested on: PfAP2-EXP AP2 domain (GST-tagged)
Test: gcPBM binding intensity (ln(normalized median fluorescence intensity)); higher = stronger DNA binding
In short: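 After 1 h on an Agilent 4 × 180k array of primer-extended double-stranded 36-bp intergenic genomic probes and negative controls, bound GST-tagged P. falciparum DNA-binding domains were detected with Alexa488 anti-GST antibody and scanned at 488 nm. The domains had been expressed in E. coli, and binding took place in 1× PBS with 1% milk, 0.2 mg/ml BSA, 0.5% salmon testes DNA and 0.03% Triton X-100. Binding intensity is the highest Masliner-normalised natural-log median intensity across replicate spots of either probe orientation.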

Point of comparison: TAAAGTGTAAAGAAGGTGCTCATTATTTATTTTTTT, “gcPBM binding intensity (ln)” value 8.19 ± 0.33. Against it:
- TTTAAAAGATAAAACACACATACTAATAAAAAACAA [CACACA_site2556] — within error, 8.82 ± 0.45
- TTGTATCCTTAATGCATGCACCAAATAACAAAAGTA — higher, 10.2 ± 0.38
- TGATAAATATGGAGCACACACACATAAACATACATA [CACACA_site420] — within error, 8.77 ± 0.56
- ACATATATAAAATAATGTACATTTTTAAGAATGCGT [XGTACX_site7654] — within error, 8.6 ± 0.32
- ATTATAATTGCATATACACACAAAGGTTCATAACAA [CACACA_site7440] — within error, 8.62 ± 0.4
- ACAAGTAATTAAGAGTGTACATAACTATAAATCCAA [XGTACX_site5215] — within error, 8.68 ± 0.4
- TATAATAAAATATGTACACACATACACCCATATATA [CACACA_site4808] — within error, 8.71 ± 0.38
- TGTATGTATGTATTATTTGTTATTTTAATTTTTTTG [TGCATGCA_negctrl_site256] — higher, 9.03 ± 0.28
- GATATGATGAGATTGATATTCATAAGAGGATTAATG [GTGCAC_negctrl_site515] — within error, 8.37 ± 0.46
- AAAAATGATATGAGTTGTACATAAGTAAGAATTATT [XGTACX_site7089] — within error, 8.62 ± 0.42
- TAAAAACGATTTTTTGCACACACATAATAAGCAGAA [CACACA_site3870] — higher, 9.01 ± 0.4
- GGACAAGTTAAACGCACACAAATATATACCCCCATA [CACACA_site4996] — higher, 9.54 ± 0.4
- TATTATATATCAAAATGTACATTAATTTGAGTAATT [XGTACX_site5434] — within error, 8.3 ± 0.39
- GATGTGATGTATTTGGTATTTTTCGATGTTGGTAGG [CACACA_negctrl_site355] — within error, 8.79 ± 0.73
- TGTTCAGTAGGGCACACACACAACAAAATAAAAAAA [CACACA_site378] — within error, 8.76 ± 0.57
- TTACCTCTTTGAAATATACACACTAATCATATCAAC [CACACA_site8778] — within error, 8.46 ± 0.33
- TTTTTGCTATTCTATTATATATATAATATATTTTAC [CACACA_negctrl_site262] — within error, 8.84 ± 0.33
- CTTTTTTCAAAACACACACACAAGAAAATATATATA [CACACA_site3109] — within error, 8.82 ± 0.51
- TTTTTTTTTTTTGTGCGTACATACCATTTTAATAAT [XGTACX_site2760] — within error, 8.78 ± 0.38
- GAGATTTATTTATGTGCACACTAGAACAATTGGATC [CACACA_site2090] — higher, 9.05 ± 0.3
- AAGACATTTTTTAAGGTGCTTTGGAAAAAGGAGTAT [GTGCAC_site9816] — within error, 8.77 ± 0.39
- TTTAAAAGATAAAGACTGCACTTTAAGCACACAAAT [GTGCAC_site9752] — within error, 8.69 ± 0.23
- AATAAATATATAAATACACACAAACATACAGATATA [CACACA_site6088] — within error, 8.9 ± 0.73
- AATTCCTATAATGAGAGTACGCATTAGAACAGTAGG [XGTACX_site5721] — within error, 8.79 ± 0.3
- TTGATAAAAAAAAAAAAATAAAAAAAAAATAAAAAA [XGTACX_negctrl_site480] — within error, 8.05 ± 0.37
- AATTAATGGAAACAAGTCAAATGATCTTTATGCATA [TGCATGCA_negctrl_site540] — within error, 8.47 ± 0.49
- AAATTGTAGAAGCGTATTTCTCGAACTGGATGAATA [CACACA_negctrl_site1373] — within error, 8.71 ± 0.54
- TTTATATCGACTCTTCTTTATATAAGTTGTGATGTT [TGCATGCA_negctrl_site362] — within error, 8.64 ± 0.35
- AAAAAAGAAACAAACACACATACATACAAACAAACA [CACACA_site142] — within error, 8.59 ± 0.26
- TTTATATTAGGTCTTGAACGATTTTCATCATTATTA [TGCATGCA_negctrl_site100] — within error, 8.27 ± 0.4
- ATATGATATATTTTATGTACATATAAAACATATATA [XGTACX_site4297] — within error, 8.3 ± 0.22
- TTATACTTTTTTTCTTGGTGTAGAAAAAAAAGTTAG [CACACA_negctrl_site1207] — within error, 8.39 ± 0.47
- AGTTTCCTTGAGAAAAGTACGTAATACTACATATAT [XGTACX_site818] — within error, 8.46 ± 0.28
- TCCTGCCTCTCTTTGGTGCGTTGTAACCCTCGAGGA — higher, 8.87 ± 0.22
- AAAATTTAATATAATGCACACATAAAAAAAAATTCA [CACACA_site8640] — within error, 8.48 ± 0.11
- TAAATTATTTATAAAGCACACAAGAAAAAATAAAAT [CACACA_site2132] — higher, 8.96 ± 0.42
- ATATTAATATACATATGTACATATATATATATATAT [XGTACX_site7425] — higher, 10.2 ± 0.24
- TAAAGGCAAACAAACACACACACATATATACATATA [CACACA_site2123] — within error, 8.61 ± 0.57
- AAAAATTAACAAAAGGTGCAAACAAATAGTGGTTTT [GTGCAC_site9998] — higher, 8.865 ± 0.049
- CCAATACTGTTTAAATGTACAAGTAGGAGGTTAATT [XGTACX_site7260] — within error, 8.78 ± 0.44
- TTTTTTTTTTATTTTGCACACTTCTAATTTAGTTGT [CACACA_site3429] — within error, 8.87 ± 0.37
- AAAAAAGTAAAAAGTGCATGTAAAATATAAGTATCT [TGCATGCA_site55] — higher, 9.23 ± 0.38
- GTTATTCTTAATTTTTGTACACATTTTTATATTATT [XGTACX_site7227] — higher, 9.23 ± 0.45
- AAAAAAATTAAACACACACACACATATATATATATA [CACACA_site4718] — higher, 10.1 ± 0.25
- GAACAAAAGGAATGTTGTACATAAAAAATGAAAAAT [XGTACX_site3929] — higher, 9.02 ± 0.36
- ATATATATGTATATGTGTACTTATATTTGTCATTTT [XGTACX_site1317] — within error, 8.46 ± 0.26
- AACATATTAATGTACACACACCCACGCACAAACAAA [CACACA_site7320] — within error, 9.04 ± 0.62
- TGGTAATATCGATTCACACATATCAAAATAAAAAAA [CACACA_site4196] — within error, 8.39 ± 0.38
- TAGGAGAAAAAAAAAAGTACCCACAACTATTATACT [XGTACX_site8195] — within error, 8.61 ± 0.54
- TCCTAATGCTACCACACACACAAAAACAAATAATAA [CACACA_site2610] — within error, 8.66 ± 0.52
- AGTATTATATATATATGTACATAATATACATATATA [XGTACX_site8514] — within error, 8.34 ± 0.33
- TTATAAGATTTATGTACACACATATACACAGCTCTA [CACACA_site6481] — within error, 8.38 ± 0.23
- GTTATACGCATCAACACACACATACAACGTGGTGTA [CACACA_site1188] — within error, 8.35 ± 0.34
- ATGGAACTTAAAAATTGTACACATAAAATGGAGAAG [XGTACX_site1823] — higher, 9.09 ± 0.39
- TAATTAATTTACATTTTAATTTTATACAAAATTTAT [CACACA_negctrl_site830] — within error, 8.43 ± 0.62
